Experimental data: ChEMBL document CHEMBL1821711, “Design and synthesis of novel arylpiperazine derivatives containing the imidazole core targeting 5-HT(2A) receptor and 5-HT transporter” (J Med Chem, 2011)

Columns and labels:
[1] = molecular target: Sodium-dependent serotonin transporter (Homo sapiens, UniProt P31645); assay: biochemical; assay type: cell-based, HEK293
[2] = molecular target: T1, 5-hydroxytryptamine receptor 2C (Homo sapiens, UniProt P28335); assay: biochemical; assay type: cell-based, CHO-K1
T1 sequence (P28335 whole entry): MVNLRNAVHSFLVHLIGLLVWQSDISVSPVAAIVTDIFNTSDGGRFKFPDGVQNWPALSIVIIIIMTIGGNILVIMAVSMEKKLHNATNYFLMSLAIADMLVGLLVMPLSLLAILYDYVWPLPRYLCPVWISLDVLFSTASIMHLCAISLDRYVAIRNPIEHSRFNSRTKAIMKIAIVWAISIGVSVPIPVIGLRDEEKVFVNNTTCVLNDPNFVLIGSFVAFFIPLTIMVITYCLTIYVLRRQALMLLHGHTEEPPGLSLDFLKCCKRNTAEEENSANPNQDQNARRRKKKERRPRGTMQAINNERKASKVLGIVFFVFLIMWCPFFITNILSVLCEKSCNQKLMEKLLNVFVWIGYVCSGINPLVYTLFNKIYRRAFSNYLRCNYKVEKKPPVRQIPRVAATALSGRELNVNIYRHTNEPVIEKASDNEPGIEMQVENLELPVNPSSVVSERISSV

in vivo [3] = conditions: Sprague-Dawley, rat, po, 5 mg/kg
in vivo [4] = conditions: Sprague-Dawley, rat, iv, 1 mg/kg
in vivo [5] = conditions: Sprague-Dawley, rat, po, 5 mg/kg; remark: listed apart in the source
in vivo [6] = conditions: Sprague-Dawley, rat, po, 5 mg/kg; remark: listed apart in the source
in vivo [7] = conditions: Sprague-Dawley, rat, po, 5 mg/kg; remark: listed apart in the source
in vivo [8] = conditions: Sprague-Dawley, rat, iv, 1 mg/kg; remark: listed apart in the source
in vivo [9] = conditions: Sprague-Dawley, rat, iv, 1 mg/kg; remark: listed apart in the source
in vivo [10] = conditions: Sprague-Dawley, rat, po, 5 mg/kg; remark: listed apart in the source

Sodium-dependent serotonin transporter, sequence (P31645 whole entry): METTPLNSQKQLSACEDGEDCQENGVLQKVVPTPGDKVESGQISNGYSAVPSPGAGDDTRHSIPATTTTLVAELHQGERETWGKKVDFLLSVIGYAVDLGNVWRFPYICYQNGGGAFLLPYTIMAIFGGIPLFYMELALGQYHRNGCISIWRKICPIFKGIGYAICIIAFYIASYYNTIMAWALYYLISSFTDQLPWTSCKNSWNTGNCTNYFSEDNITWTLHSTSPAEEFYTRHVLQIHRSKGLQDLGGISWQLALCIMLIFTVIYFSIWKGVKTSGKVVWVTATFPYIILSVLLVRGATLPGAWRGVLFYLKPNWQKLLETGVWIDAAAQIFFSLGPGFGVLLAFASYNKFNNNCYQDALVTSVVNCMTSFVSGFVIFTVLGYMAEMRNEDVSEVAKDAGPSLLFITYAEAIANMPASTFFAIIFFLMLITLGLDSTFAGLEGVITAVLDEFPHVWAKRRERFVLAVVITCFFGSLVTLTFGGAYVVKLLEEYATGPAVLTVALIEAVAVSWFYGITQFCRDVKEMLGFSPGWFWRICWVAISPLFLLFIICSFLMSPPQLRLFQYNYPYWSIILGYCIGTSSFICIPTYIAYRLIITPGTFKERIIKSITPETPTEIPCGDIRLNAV

Row | SMILES | IC50 [1] [nM] | IC50 [2] [nM] | other results
1 | COc1ccc(-n2c(C)nc(C(=O)NCCCN3CCN(c4cccc(Cl)c4Cl)CC3)c2C)cc1 | 33 | – | –
2 | Cc1cccc(N2CCN(CC(O)CNC(=O)c3nc(C)n(-c4ccccc4Cl)c3C)CC2)c1C (centres undefined) | – | 311 | –
3 | COc1ccc(-n2c(C)nc(C(=O)NCC(O)CN3CCN(c4cccc(C)c4C)CC3)c2C)cc1OC (centres undefined) | 70.3 | 1180 | –
4 | Cc1nc(C(=O)NCCCN2CCN(c3cccc(Cl)c3Cl)CC2)c(C)n1-c1ccc2c(c1)OCCO2.Cl.Cl.Cl.Cl | – | – | AUC(0-inf) (in vivo [3]): 180 ng·h/mL; half-life (in vivo [4]): 26.3 min; Cmax (in vivo [5]): 208 ng/mL; bioavailability (in vivo [6]): 14.9%; Tmax (in vivo [7]): 15 min; AUC(0-inf) (in vivo [8]): 182 ng·h/mL; Cmax (in vivo [9]): 245 ng/mL; half-life (in vivo [10]): 22.3 min
5 | CCCc1nc(C(=O)NCC(O)CN2CCN(c3cccc(Cl)c3C)CC2)cn1-c1ccc(Cl)cc1 (centres undefined) | 80 | 953 | –
6 | Cc1c(Cl)cccc1N1CCN(CCCNC(=O)c2nc(C)n(-c3ccccc3Cl)c2C)CC1 | – | 39 | –
7 | Cc1cccc(N2CCN(CC(O)CNC(=O)c3nc(C)n(-c4cccc(Cl)c4)c3C)CC2)c1C (centres undefined) | – | 535 | –
8 | Cc1cccc(N2CCN(CC(O)CNC(=O)c3nc(C)n(-c4ccc(F)cc4)c3C)CC2)c1C (centres undefined) | – | 654 | –
9 | Cc1c(Cl)cccc1N1CCN(CC(O)CNC(=O)c2nc(C)n(-c3ccccc3F)c2C)CC1 (centres undefined) | 36 | 774 | –
10 | Cc1c(Cl)cccc1N1CCN(CC(O)CNC(=O)c2nc(C)n(-c3ccc(F)cc3)c2C)CC1 (centres undefined) | 20 | 1450 | –
11 | CCCc1nc(C(=O)NCC(O)CN2CCN(c3cccc(Cl)c3Cl)CC2)cn1-c1ccc(Cl)cc1 (centres undefined) | – | 856 | –
12 | Cc1cccc(N2CCN(CCCNC(=O)c3nc(C)n(-c4ccccc4F)c3C)CC2)c1C | – | 124 | –
13 | CCCc1nc(C(=O)NCC(O)CN2CCN(c3cccc(Cl)c3C)CC2)c(C)n1-c1ccccc1 (centres undefined) | – | 398 | –
14 | COc1ccccc1-n1c(C)nc(C(=O)NCCCN2CCN(c3cccc(Cl)c3C)CC2)c1C.Cl.Cl.Cl | – | – | AUC(0-inf) (in vivo [3]): 21.9 ng·h/mL; half-life (in vivo [4]): 13.6 min; Cmax (in vivo [5]): 65 ng/mL; bioavailability (in vivo [6]): 3.45%; Tmax (in vivo [7]): 15 min; AUC(0-inf) (in vivo [8]): 127 ng·h/mL; Cmax (in vivo [9]): 408 ng/mL; half-life (in vivo [10]): 7.26 min
15 | CCCc1nc(C(=O)NCCCN2CCN(c3cccc(C)c3C)CC2)c(C)n1-c1ccc(OC)cc1 | 13 | – | –
16 | CCCc1nc(C(=O)NCC(O)CN2CCN(c3cccc(Cl)c3C)CC2)c(C)n1-c1ccc(OC)cc1 (centres undefined) | – | 1360 | –
17 | Cc1cccc(N2CCN(CCCNC(=O)c3nc(C)n(-c4cccc(Cl)c4)c3C)CC2)c1C | – | 111 | –
18 | Cc1cccc(N2CCN(CCCNC(=O)c3nc(C)n(-c4ccc(F)cc4)c3C)CC2)c1C | – | 324 | –
19 | COc1ccccc1-n1c(C)nc(C(=O)NCC(O)CN2CCN(c3cccc(Cl)c3C)CC2)c1C (centres undefined) | 19 | 476 | –
20 | Cc1cccc(N2CCN(CCCNC(=O)c3nc(C)n(-c4ccccc4)c3C)CC2)c1C | – | 170 | –
